Here are results for 84 molecules from PubChem BioAssay AID1346428 (National Center for Advancing Translational Sciences (NCATS), 2018).

SMILES strings stand for the structures. Where “and” joins values, the source holds several entries; their conditions need not be identical. Identical values can stand only once. Out of some 48,000 compounds screened, about 1,200 (2.5%) were called active. Roughly 2% stayed inconclusive and do not appear here.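 Rule for the calls: active = activation of at least 60% and not above a set upper limit (about 1 call in 100 departs from these limits); inconclusive = activation of 40% to 60%, or above that upper limit; inactive = activation under 40%.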 The list shows a part of the results.

UniProt O75388, sequence (O75388 whole entry, looked up): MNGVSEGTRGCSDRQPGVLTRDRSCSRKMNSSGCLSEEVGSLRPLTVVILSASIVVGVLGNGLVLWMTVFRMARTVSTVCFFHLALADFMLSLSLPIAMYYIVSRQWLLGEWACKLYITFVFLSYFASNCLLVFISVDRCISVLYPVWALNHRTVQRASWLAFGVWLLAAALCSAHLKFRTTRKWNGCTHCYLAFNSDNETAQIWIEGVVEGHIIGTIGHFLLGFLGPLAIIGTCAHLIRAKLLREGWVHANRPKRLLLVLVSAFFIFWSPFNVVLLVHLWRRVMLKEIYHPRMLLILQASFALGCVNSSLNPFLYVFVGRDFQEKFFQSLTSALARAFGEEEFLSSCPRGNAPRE

The target of this test is Probable G-protein coupled receptor 32 (Homo sapiens) (UniProt O75388). In words: qHTS for Agonists of Human Resolvin D1 Receptor DRV1. Note: 0% is about no effect. The settings on record: CHO-K1 GPR32 beta-arrestin PathHunter luminescence, 90 min; at 76.9 µM; stronger effect = higher value; zero percent set by DMSO-only wells. The essentials:
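Luminescent readout of beta-Gal complementation quantifies ligand-induced beta-arrestin association with GPR32 in CHO-K1 cells; 90 min compound incubation at 37 °C, detection 1 h at room temperature.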
A general note: In qHTS, concentration-response curves come from the screen itself.
`COc1cccc(NS(=O)(=O)c2ccc3[nH]c4c(c3c2)CCCCCC4)c1`: the activation was inactive: 3.07%.

For `Cn1c2c(c(=O)n(C)c1=O)C(c1cccc(O)c1)CC(=O)N2` (centres undefined), the activation was inactive: -9.97%.

With `CCOC(=O)c1ccc(NC(=O)CC2Nc3cccc4cccc(c34)NC2=O)cc1` (centres undefined), the activation was inactive: -0.453%.

Take `Cc1noc(C)c1S(=O)(=O)Nc1ccc(C(=O)Nc2ccc(C(C)C)cc2)cc1`: the activation was active: 91%.

Turning to `COc1ccc(-c2onc(C)c2C)cc1S(=O)(=O)N1CCc2ccccc21`, the activation was inactive: -6.94%.

In the case of `CCc1ccc(CN(C(=O)c2ccc(OC)cc2)C2CCS(=O)(=O)C2)cc1` (centres undefined), the activation was inactive: -3.25%.

Consider `COc1cc2c(cc1NC(=O)COc1ccc(Br)c(C)c1)oc1ccccc12`, for which the activation was inactive: 1.03%.

As to `CCC12CN3CC(CC)(CN(C1)C3c1cccc(OC)c1O)C2=O` (centres undefined), the activation was inactive: -12.9%.

As to `CCOC(=O)c1c(NC(=O)CCCOc2ccc(C)cc2)sc2c1CCC(C)C2` (centres undefined), the activation is inactive: -3.44%.

As to `COc1ccc(C2=CC(c3ccccc3Cl)n3nc(-c4ccc(C)cc4)nc3N2)cc1` (centres undefined), the activation is inactive: -13.9%.

For the molecule `CCc1ccc(-n2c(SCc3nc(-c4cc(OC)ccc4OC)no3)nnc2-c2ccccc2)cc1`, the activation was inactive: -20.2%.

Turning to `CCOC(=O)Cn1c(=O)n(-c2ccccc2OC)c2nc(-c3ccccc3)nc(C(N)=O)c21`, the activation is inactive: -1.23%.

On to `CCc1nnc(SCC(=O)Nc2ccc(Cl)cc2F)c2cc3occc3n12`, for which the activation was inactive: -18.6%.

For the molecule `CCc1ccc(CNC(=O)c2ccc(CS(=O)c3ccc(Br)cc3)o2)cc1` (centres undefined), the activation was inactive: -20.6%.

Regarding `Cc1cccc(N2CCN(C(=O)c3cn(C)c4ccc(S(=O)(=O)N(C)C)cc4c3=O)CC2C)c1` (centres undefined), the activation was inactive: 0.0261%.

For `Cc1ccc2nc(N(Cc3cccnc3)C(=O)c3ccco3)sc2c1`, the activation is inactive: -14.7%.

With `COc1ccc(-c2c(C)c3ccc(O)c(CN4CCCCC4)c3oc2=O)cc1OC`, the activation was inactive: -5.42%.

Consider `CCn1c(C(=O)NCc2ccc(C)cc2)cc2sc(Cl)cc21`, for which the activation was inactive: -22.6%.

For `COc1ccc(-c2nc3ccccc3s2)cc1NC(=O)c1ccc(C#N)cc1F`, the activation is inactive: 6.75%.

For `CCCCCn1c(=O)[nH]c2cc(C(=O)N3CCN(c4cccc(Cl)c4)CC3)ccc2c1=O`, the activation was inactive: 4.44%.

For the molecule `CN(c1ccccc1)S(=O)(=O)c1nnc(NC(=O)c2ccco2)s1`, the activation is active: 92.8%.

For the molecule `Cc1ccccc1NC(=O)c1cc2sccc2n1Cc1ccc(F)cc1`, the activation was inactive: -7.88%.

For `COc1ccc(OC)c(CNC(=O)c2cc(S(=O)(=O)N3CCC(C)CC3)cn2C)c1`, the activation is inactive: 5.8%.

On to `COc1cc2oc(=O)c(CC(=O)NCCc3ccccc3)c(C)c2cc1Cl`, for which the activation was inactive: -4.87%.

As to `CCOC(=O)CCn1c(=O)c2cccn2c2cccnc21`, the activation was inactive: -12.4%.

For `CSc1nn(Cc2ccccc2C)c(NC(C)=O)c1S(=O)(=O)c1ccc(C)cc1`, the activation was inactive: -9.11%.

With `COc1ccc(NC(=O)CCc2nc3c(C)nn(-c4ccc(C)cc4)c3n(C)c2=O)c(OC)c1`, the activation is inactive: 2.22%.

As for `COCCN1Cc2cccc(C(=O)Nc3ccc(C(=O)OC)cc3)c2C1=O`, the activation is inactive: 7.38%.

As for `Cc1ccc(NC(=O)c2cc(S(=O)(=O)N3CCC(C)CC3)cn2C)cc1Cl`, the activation is inactive: -0.797%.

For the molecule `Cc1cc2cc(CCNS(=O)(=O)c3ccc(Br)cc3)c(=O)[nH]c2cc1C`, the activation was inactive: 49.1%.

Take `CCOc1ccc(-c2c(C)nn3c(C)c(C(=O)Nc4cccc(Cl)c4C)cnc23)cc1OCC`: the activation is inactive: 13.4%.

Regarding `COCCNC(=O)CCCn1c(SCC(=O)c2ccc(F)cc2)nc2c(sc3ccccc32)c1=O`, the activation was inactive: -11.8%.

Turning to `N[C@@H]1CONC1=O`, the activation is inactive: 6.87% and inactive: -4.99%.

As for `COc1ccccc1C(=O)Nc1ccc2nc(SCC(=O)N3CCCC3)sc2c1`, the activation is inactive: -25.3%.

As for `Cc1ccc2nc(-c3ccsc3)c(Nc3ccc(C(C)C)cc3)n2c1`, the activation was inactive: -26.6%.

As for `O=C(CCS(=O)(=O)c1nc(-c2cccs2)cc(C(F)(F)F)n1)Nc1ccc(Br)cc1`, the activation is inactive: -42.7%.

Consider `Cc1ccc(CS(=O)Cc2ccc(C(=O)NCc3ccccc3Cl)o2)cc1` (centres undefined), for which the activation was inactive: -14.7%.

For `Cc1ccc(NC(=O)C2CCCN(c3cnccn3)C2)cc1Cl` (centres undefined), the activation was inactive: -1.26%.

For `Cc1ccccc1CN1C(=O)c2ccccc2Sc2ccc(C(=O)O)cc21`, the activation is inactive: 3.67%.

For the molecule `O=C(O)COCCN1CCN(C(c2ccccc2)c2ccc(Cl)cc2)CC1` (centres undefined), the activation is inactive: -4.3%.

Turning to `CCOc1ccc(NC(=O)CCc2nc3cccnc3n2Cc2ccc(OC)cc2)cc1`, the activation is inactive: 35.2%.

For the molecule `Nc1nnc(SCC(=O)Nc2cccc(F)c2)s1`, the activation is inactive: 0.371%.

Take `COc1ccccc1C(=O)Nc1cccc(OCc2cc(=O)n3c(C)csc3n2)c1`: the activation was inactive: 5.26%.

For the molecule `O=S(=O)(c1cc(Br)c(Br)s1)N1CCN(c2ccccc2)CC1`, the activation is inactive: 9.98%.

For the molecule `Cc1ccc(S(=O)(=O)c2nnn3c2nc(NCc2ccccc2)c2sccc23)cc1`, the activation is inactive: -22.8%.

On to `CC(C)c1ccc(NC(=O)C2CCN(S(=O)(=O)c3ccc(Br)s3)CC2)cc1`, for which the activation is inactive: 10.8%.

As for `COc1ccc(-c2noc(N3CCN(c4ccc(Cl)cc4)CC3)n2)cc1OC`, the activation was inactive: 24.9%.

With `CCc1nn2c(=O)cc(COC(=O)c3cccc(NC(=O)COc4ccccc4)c3)nc2s1`, the activation is inactive: -12.1%.

As for `CCOc1ccc(CCNC(=O)c2cc3cc4cc(OC)ccc4nc3s2)cc1OCC`, the activation was inactive: 14.1%.

Regarding `CN1C[C@H](C(=O)N[C@]2(C)O[C@@]3(O)[C@@H]4CCCN4C(=O)[C@H](Cc4ccccc4)N3C2=O)C[C@@H]2c3cccc4[nH]cc(c34)C[C@H]21`, the activation is inactive: -4.23% and inactive: -18%.

As for `COc1cccc(NC(=O)CCSc2nc(-c3ccco3)cc(C(F)(F)F)n2)c1`, the activation is inactive: -25.1%.

Consider `COc1ccc2c(c1)CCc1c(C(=O)Nc3cnn(Cc4ccc(Cl)cc4Cl)c3)noc1-2`, for which the activation is inactive: -20.4%.

Consider `CC(C)Cc1nn2c(=O)cc(COC(=O)c3ccccc3NC(=O)c3cccs3)nc2s1`, for which the activation is inactive: -10.9%.

Regarding `CCOc1ccccc1NC(=O)C(=O)c1cc(C)n(-c2cccc(C)c2C)c1C`, the activation is inactive: -1.66%.

On to `Cc1cccc(NC(=O)C2CCN(S(=O)(=O)c3ccc4[nH]c5c(c4c3)CCCCC5)CC2)c1`, for which the activation was inactive: 2.32%.

Consider `Cc1cc(C)cc(NC(=O)Cn2cc(C(=O)c3ccncc3)c(=O)c3cc(C)c(C)cc32)c1`, for which the activation is inactive: -23.1%.

As for `CCc1cccc(C)c1NC(=O)C1CCN(c2nnc(C)c3c(C)n(-c4ccccc4)nc23)CC1`, the activation is inactive: -19.3%.

Turning to `COc1ccc(CNC(=O)C2CCN(S(=O)(=O)c3ccc4nc5c(c(C(=O)O)c4c3)CCCC5)CC2)cc1`, the activation is inactive: -23.6%.

For `CN1CCN(c2ncc3c(n2)CCN(Cc2ccc(Br)s2)C3)CC1`, the activation is inactive: -36.8%.

Take `CCOc1ccc(NC(=O)COc2ccc(S(=O)(=O)NC3CCCCC3)cc2)cc1`: the activation was inactive: 36.6%.

Take `CCOC(=O)c1c(Nc2ccc(OC)cc2)nnc(-c2ccccc2)c1-c1ccccc1`: the activation was inactive: -19.6%.

`CC(=O)c1ccc(N2CCN(C(=O)C3CCN(S(=O)(=O)c4cn(C)cn4)CC3)CC2)cc1`: the activation was inactive: -12.2%.

As to `Cn1c(=O)c2sccc2n2c(CCC(=O)NCc3ccc(Cl)cc3)nnc12`, the activation was inactive: -18.1%.

For the molecule `CCCOc1ccc(-c2nc(SCC(=O)c3ccc(Cl)cc3)n[nH]2)cc1`, the activation was inactive: 46.1%.

As to `Cc1ccc(Cl)cc1Nc1nn2c(=O)c3ccc(C(=O)NCc4ccc(F)cc4)cc3nc2s1`, the activation was inactive: 23%.

As to `CCOc1ccc(CNC(=O)Cc2ccc(NC(=O)N3CCSc4ncccc43)cc2)cc1`, the activation is inactive: -1.58%.

On to `Cc1cccn2c(=O)c(C(=O)NCc3cccc(F)c3)cnc12`, for which the activation was inactive: -12.8%.

Regarding `Cc1cccc(-c2nc3scc(CCNS(=O)(=O)c4ccc5c(c4)OCCO5)n3n2)c1`, the activation was inactive: -0.826%.

As to `COc1ccc(Nc2c(-c3cccc(O)c3)nc3cnccn23)cc1`, the activation was inactive: -19.6%.

Consider `CCOC(=O)N1CCc2c(sc3c2c(=O)n(-c2ccc(Cl)cc2)c(=O)n3CC(C)C)C1`, for which the activation is inactive: -4.2%.

As to `CN(C)CCN(Cc1ccccc1)c1ccccn1`, the activation is inactive: -3.99%.

Regarding `COc1ccc(-c2nc3cc(NC(=O)CSc4ccc(C)cc4)ccc3o2)cc1`, the activation was inactive: 42.6%.

Consider `COc1ccccc1-c1cc(C(=O)NCc2ccccc2)c2c(-c3ccc(C)cc3)[nH]nc2n1`, for which the activation was inactive: -10.5%.

Consider `COc1ccc(NC(=O)c2oc3ccccc3c2NC(=O)Cc2coc3c(C)c(C)ccc23)cc1`, for which the activation was inactive: -13.4%.

For `Cc1ccc(S(=O)(=O)c2nc(S(=O)(=O)c3ccccc3)sc2NCCCOC(C)C)cc1`, the activation was inactive: -22.6%.

Regarding `CCc1ccc(NC(=O)Cn2ccn(-c3ccc(C)c(C)c3)c(=O)c2=O)cc1`, the activation was inactive: 2.37%.

With `O=C(CSc1n[nH]c(-c2ccc(F)cc2)n1)NCCc1ccccc1`, the activation was inactive: -0.86%.

As to `Cc1c(Cl)cccc1NC(=O)CCS(=O)(=O)c1ccc2c(c1)CC(=O)N2C`, the activation is inactive: 28.4%.

Turning to `CCOc1ccc(NC(=O)/C(C#N)=C\c2ccc(-c3ccc(Cl)cc3)o2)cc1`, the activation was inactive: 9.46%.

Regarding `COc1cccc(NC(=O)Cn2cc(C(=O)c3ccc(C)cc3)c(=O)c3cc(OC)ccc32)c1`, the activation was inactive: 2.85%.

With `Cc1ccccc1NC(=O)Cn1c(=O)n(Cc2ccc3c(c2)OCO3)c(=O)c2ccccc21`, the activation was inactive: -18.6%.

`Cc1ccc(S(=O)(=O)NCCc2cn3ccsc3n2)c(C)c1`: the activation was inactive: -14.8%.

With `CCN(CC)CCNC(=O)c1c2c(nc3ccccc13)C(=O)N(C1CCCCC1)C2`, the activation is inactive: -1.34%.

With `COc1ccc(CNC(=O)c2ccc3c(c2)N(Cc2c(F)cccc2Cl)C(=O)CS3)cc1`, the activation was inactive: -12%.
